Laboratory results taken from the supplement of paper PMC8728848.
The list shows a part of the results.

Experiments:
Assay in all cases: glycan array binding signal (z-score within array); higher = stronger binding
Details in all cases: glycan notation: IUPAC condensed, linker removed
[1] = molecular target: Gal(b1-4)GlcNAc(b1-2)[Gal(b1-4)GlcNAc(b1-6)]Man(a1-6)[GlcNAc(b1-4)][Gal(b1-4)GlcNAc(b1-2)Man(a1-3)]Man(b1-4)GlcNAc(b1-4)GlcNAc
Procedure, shortened: (§1)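 Glycan array data came from 3228 arrays in the Consortium for Functional Glycomics database, and only arrays with an available protein sequence were kept. Glycan names were put into IUPAC-condensed notation, and columns mapping to the same glycan were averaged. The binding signal is a within-array Z-score, averaged across arrays of one protein sequence run at different concentrations or buffers and across linkers. A negative Z-score can be read as non-binding.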

[2] = molecular target: Gal(b1-4)GlcNAc(b1-2)[Gal(b1-4)GlcNAc(b1-6)]Man(a1-6)[GlcNAc(b1-4)][Gal(b1-4)GlcNAc(b1-2)[Gal(b1-4)GlcNAc(b1-4)]Man(a1-3)]Man(b1-4)GlcNAc(b1-4)[Fuc(a1-6)]GlcNAc
Procedure, shortened: as §1

[3] = molecular target: Gal(b1-4)GlcNAc(b1-3)Gal(b1-3)GalNAc
Procedure, shortened: as §1

[4] = molecular target: Gal(b1-4)GlcNAc(b1-3)Gal(b1-3)GlcNAc
Procedure, shortened: as §1

[5] = molecular target: Gal(b1-4)GlcNAc(b1-3)Gal(b1-4)Glc
Procedure, shortened: as §1

[6] = molecular target: Gal(b1-4)GlcNAc(b1-3)Gal(b1-4)GlcNAc
Procedure, shortened: as §1

[7] = molecular target: Gal(b1-4)GlcNAc(b1-3)Gal(b1-4)GlcNAc(b1-2)Man(a1-3)[Gal(b1-4)GlcNAc(b1-3)Gal(b1-4)GlcNAc(b1-2)Man(a1-6)]Man(b1-4)GlcNAc(b1-4)GlcNAc
Procedure, shortened: as §1

[8] = molecular target: Gal(b1-4)GlcNAc(b1-3)Gal(b1-4)GlcNAc(b1-2)Man(a1-3)[Gal(b1-4)GlcNAc(b1-3)Gal(b1-4)GlcNAc(b1-2)Man(a1-6)]Man(b1-4)GlcNAc(b1-4)[Fuc(a1-6)]GlcNAc
Procedure, shortened: as §1

[9] = molecular target: Gal(b1-4)GlcNAc(b1-3)Gal(b1-4)GlcNAc(b1-2)[Gal(b1-4)GlcNAc(b1-3)Gal(b1-4)GlcNAc(b1-6)]Man(a1-6)[Gal(b1-4)GlcNAc(b1-3)Gal(b1-4)GlcNAc(b1-2)Man(a1-3)]Man(b1-4)GlcNAc(b1-4)GlcNAc
Procedure, shortened: as §1

[10] = molecular target: Gal(b1-4)GlcNAc(b1-3)Gal(b1-4)GlcNAc(b1-2)[Gal(b1-4)GlcNAc(b1-3)Gal(b1-4)GlcNAc(b1-6)]Man(a1-6)[Gal(b1-4)GlcNAc(b1-3)Gal(b1-4)GlcNAc(b1-2)Man(a1-3)]Man(b1-4)GlcNAc(b1-4)[Fuc(a1-6)]GlcNAc
Procedure, shortened: as §1

[11] = molecular target: Gal(b1-4)GlcNAc(b1-3)Gal(b1-4)GlcNAc(b1-3)Gal(b1-4)GlcNAc
Procedure, shortened: as §1

[12] = molecular target: Gal(b1-4)GlcNAc(b1-3)Gal(b1-4)GlcNAc(b1-3)Gal(b1-4)GlcNAc(b1-2)Man(a1-3)[Gal(b1-4)GlcNAc(b1-3)Gal(b1-4)GlcNAc(b1-3)Gal(b1-4)GlcNAc(b1-2)Man(a1-6)]Man(b1-4)GlcNAc(b1-4)GlcNAc
Procedure, shortened: as §1

[13] = molecular target: Gal(b1-4)GlcNAc(b1-3)Gal(b1-4)GlcNAc(b1-3)Gal(b1-4)GlcNAc(b1-2)Man(a1-3)[Gal(b1-4)GlcNAc(b1-3)Gal(b1-4)GlcNAc(b1-3)Gal(b1-4)GlcNAc(b1-2)Man(a1-6)]Man(b1-4)GlcNAc(b1-4)[Fuc(a1-6)]GlcNAc
Procedure, shortened: as §1

[14] = molecular target: Gal(b1-4)GlcNAc(b1-3)Gal(b1-4)GlcNAc(b1-3)Gal(b1-4)GlcNAc(b1-2)[Gal(b1-4)GlcNAc(b1-3)Gal(b1-4)GlcNAc(b1-3)Gal(b1-4)GlcNAc(b1-6)]Man(a1-6)[Gal(b1-4)GlcNAc(b1-3)Gal(b1-4)GlcNAc(b1-3)Gal(b1-4)GlcNAc(b1-2)Man(a1-3)]Man(b1-4)GlcNAc(b1-4)[Fuc(a1-6)]GlcNAc
Procedure, shortened: as §1

[15] = molecular target: Gal(b1-4)GlcNAc(b1-3)Gal(b1-4)GlcNAc(b1-3)Gal(b1-4)GlcNAc(b1-3)Gal(b1-4)GlcNAc(b1-2)Man(a1-3)[Gal(b1-4)GlcNAc(b1-3)Gal(b1-4)GlcNAc(b1-3)Gal(b1-4)GlcNAc(b1-3)Gal(b1-4)GlcNAc(b1-2)Man(a1-6)]Man(b1-4)GlcNAc(b1-4)GlcNAc
Procedure, shortened: as §1

[16] = molecular target: Gal(b1-4)GlcNAc(b1-3)Gal(b1-4)GlcNAc(b1-3)Gal(b1-4)GlcNAc(b1-3)Gal(b1-4)GlcNAc(b1-2)Man(a1-3)[Gal(b1-4)GlcNAc(b1-3)Gal(b1-4)GlcNAc(b1-3)Gal(b1-4)GlcNAc(b1-3)Gal(b1-4)GlcNAc(b1-2)Man(a1-6)]Man(b1-4)GlcNAc(b1-4)[Fuc(a1-6)]GlcNAc
Procedure, shortened: as §1

[17] = molecular target: Gal(b1-4)GlcNAc(b1-3)Gal(b1-4)GlcNAc(b1-3)Gal(b1-4)GlcNAc(b1-3)Gal(b1-4)GlcNAc(b1-2)[Gal(b1-4)GlcNAc(b1-3)Gal(b1-4)GlcNAc(b1-3)Gal(b1-4)GlcNAc(b1-3)Gal(b1-4)GlcNAc(b1-6)]Man(a1-6)[Gal(b1-4)GlcNAc(b1-3)Gal(b1-4)GlcNAc(b1-3)Gal(b1-4)GlcNAc(b1-3)Gal(b1-4)GlcNAc(b1-2)Man(a1-3)]Man(b1-4)GlcNAc(b1-4)[Fuc(a1-6)]GlcNAc
Procedure, shortened: as §1

[18] = molecular target: Gal(b1-4)GlcNAc(b1-3)Gal(b1-4)GlcNAc(b1-3)Gal(b1-4)GlcNAc(b1-3)Gal(b1-4)GlcNAc(b1-3)Gal(b1-4)GlcNAc(b1-2)Man(a1-3)[Gal(b1-4)GlcNAc(b1-3)Gal(b1-4)GlcNAc(b1-3)Gal(b1-4)GlcNAc(b1-3)Gal(b1-4)GlcNAc(b1-3)Gal(b1-4)GlcNAc(b1-2)Man(a1-6)]Man(b1-4)GlcNAc(b1-4)GlcNAc
Procedure, shortened: as §1

[19] = molecular target: Gal(b1-4)GlcNAc(b1-3)Gal(b1-4)GlcNAc(b1-3)Gal(b1-4)GlcNAc(b1-3)Gal(b1-4)GlcNAc(b1-3)Gal(b1-4)GlcNAc(b1-2)Man(a1-3)[Gal(b1-4)GlcNAc(b1-3)Gal(b1-4)GlcNAc(b1-3)Gal(b1-4)GlcNAc(b1-3)Gal(b1-4)GlcNAc(b1-3)Gal(b1-4)GlcNAc(b1-2)Man(a1-6)]Man(b1-4)GlcNAc(b1-4)[Fuc(a1-6)]GlcNAc
Procedure, shortened: as §1

[20] = molecular target: Gal(b1-4)GlcNAc(b1-3)Gal(b1-4)GlcNAc(b1-3)Gal(b1-4)GlcNAc(b1-3)Gal(b1-4)GlcNAc(b1-3)Gal(b1-4)GlcNAc(b1-2)[Gal(b1-4)GlcNAc(b1-3)Gal(b1-4)GlcNAc(b1-3)Gal(b1-4)GlcNAc(b1-3)Gal(b1-4)GlcNAc(b1-3)Gal(b1-4)GlcNAc(b1-6)]Man(a1-6)[Gal(b1-4)GlcNAc(b1-3)Gal(b1-4)GlcNAc(b1-3)Gal(b1-4)GlcNAc(b1-3)Gal(b1-4)GlcNAc(b1-3)Gal(b1-4)GlcNAc(b1-2)Man(a1-3)]Man(b1-4)GlcNAc(b1-4)[Fuc(a1-6)]GlcNAc
Procedure, shortened: as §1

[21] = molecular target: Gal(b1-4)GlcNAc(b1-3)Gal(b1-4)GlcNAc(b1-3)Gal(b1-4)GlcNAc(b1-3)Gal(b1-4)GlcNAc(b1-3)Gal(b1-4)GlcNAc(b1-3)Gal(b1-4)GlcNAc(b1-2)Man(a1-3)[Gal(b1-4)GlcNAc(b1-3)Gal(b1-4)GlcNAc(b1-3)Gal(b1-4)GlcNAc(b1-3)Gal(b1-4)GlcNAc(b1-3)Gal(b1-4)GlcNAc(b1-3)Gal(b1-4)GlcNAc(b1-2)Man(a1-6)]Man(b1-4)GlcNAc(b1-4)GlcNAc
Procedure, shortened: as §1

[22] = molecular target: Gal(b1-4)GlcNAc(b1-3)Gal(b1-4)GlcNAc(b1-3)GalNAc
Procedure, shortened: as §1

[23] = molecular target: Gal(b1-4)GlcNAc(b1-3)Gal(b1-4)GlcNAc(b1-3)[Gal(b1-4)GlcNAc(b1-3)Gal(b1-4)GlcNAc(b1-6)]GalNAc
Procedure, shortened: as §1

[24] = molecular target: Gal(b1-4)GlcNAc(b1-3)Gal(b1-4)GlcNAc(b1-6)[Gal(b1-3)]GalNAc
Procedure, shortened: as §1

[25] = molecular target: Gal(b1-4)GlcNAc(b1-3)Gal(b1-4)[Fuc(a1-3)]GlcNAc(b1-3)Gal(b1-4)[Fuc(a1-3)]GlcNAc
Procedure, shortened: as §1

[26] = molecular target: Gal(b1-4)GlcNAc(b1-3)GalNAc
Procedure, shortened: as §1

[27] = molecular target: Gal(b1-4)GlcNAc(b1-3)[Fuc(a1-3)GlcNAc(b1-6)]Gal(b1-4)Glc
Procedure, shortened: as §1

[28] = molecular target: Gal(b1-4)GlcNAc(b1-3)[Gal(b1-4)GlcNAc(b1-6)]Gal(b1-4)GlcNAc
Procedure, shortened: as §1

[29] = molecular target: Gal(b1-4)GlcNAc(b1-3)[GlcNAc(b1-6)]Gal(b1-4)GlcNAc
Procedure, shortened: as §1

[30] = molecular target: Gal(b1-4)GlcNAc(b1-6)Gal(b1-4)GlcNAc
Procedure, shortened: as §1

[31] = molecular target: Gal(b1-4)GlcNAc(b1-6)GalNAc
Procedure, shortened: as §1

[32] = molecular target: Gal(b1-4)GlcNAc(b1-6)[Gal(b1-3)]GalNAc
Procedure, shortened: as §1

[33] = molecular target: Gal(b1-4)GlcNAc(b1-6)[Gal(b1-4)GlcNAc(b1-3)]GalNAc
Procedure, shortened: as §1

Gal(b1-4)GlcNAc6P = molecular target: Gal(b1-4)GlcNAc6P
Procedure, shortened: as §1

Gal(b1-6)Gal = molecular target: Gal(b1-6)Gal
Procedure, shortened: as §1

Gal3S(b1-3)GalNAc = molecular target: Gal3S(b1-3)GalNAc
Procedure, shortened: as §1

Gal3S(b1-3)GlcNAc = molecular target: Gal3S(b1-3)GlcNAc
Procedure, shortened: as §1

[34] = molecular target: Gal3S(b1-3)[Fuc(a1-4)]GlcNAc
Procedure, shortened: as §1

B1: SP16665A-bot-344-23-344 (Bacteroides ovatus) (protein)
chain: SDNEFPDFDYQTVYFANQYGLRTIELGESEFVDNTLDNQHKMVIKAAWGGGYTNRNNVVINFKVDESLCDNLYFKDTDQPLVPMPASYYTLASDRIAIPKGQIMAGVEVQLTDDFFADEKSISENYVIPLLMTNVQGADSILQGKPVVENPVLTNAGDWSILPQNFVLYAVKYVNPWHGEYLRRGIDHATVAGTSKDIIRHEQFVENDEVVNISTKSMKDNLLTLKTKDESGKDISYTVRLSFAEDGSCTVHSGSQNVVVSGSGKFVSKGEKNSLGGKDRNAIYLDYTVNLTDNNIQLATKDTLVLRTRNVYGGKSLEVVRK
glycan array binding signal (z-score) [1]: -0.304
glycan array binding signal (z-score) [2]: -0.757
glycan array binding signal (z-score) [3]: -0.408
glycan array binding signal (z-score) [4]: -0.173
glycan array binding signal (z-score) [5]: 0.226
glycan array binding signal (z-score) [6]: -0.125
glycan array binding signal (z-score) [7]: 0.404
glycan array binding signal (z-score) [8]: -0.278
glycan array binding signal (z-score) [9]: 0.676
glycan array binding signal (z-score) [10]: 0.103
glycan array binding signal (z-score) [11]: 0.071
glycan array binding signal (z-score) [12]: 0.702
glycan array binding signal (z-score) [13]: 2.77
glycan array binding signal (z-score) [14]: -0.333
glycan array binding signal (z-score) [15]: 0.2
glycan array binding signal (z-score) [16]: -0.114
glycan array binding signal (z-score) [17]: 0.091
glycan array binding signal (z-score) [18]: -0.342
glycan array binding signal (z-score) [19]: 0.44
glycan array binding signal (z-score) [20]: 0.968
glycan array binding signal (z-score) [21]: 0.152
glycan array binding signal (z-score) [22]: -0.439
glycan array binding signal (z-score) [23]: 0.116
glycan array binding signal (z-score) [24]: -0.29
glycan array binding signal (z-score) [25]: -0.128
glycan array binding signal (z-score) [26]: 0.135
glycan array binding signal (z-score) [27]: -0.732
glycan array binding signal (z-score) [28]: 0.369
glycan array binding signal (z-score) [29]: -0.377
glycan array binding signal (z-score) [30]: -0.427
glycan array binding signal (z-score) [31]: 0.329
glycan array binding signal (z-score) [32]: 0.088
glycan array binding signal (z-score) [33]: -0.234
glycan array binding signal (z-score) (Gal(b1-4)GlcNAc6P): 0.203
glycan array binding signal (z-score) (Gal(b1-6)Gal): 0.157
glycan array binding signal (z-score) (Gal3S(b1-3)GalNAc): 0.97
glycan array binding signal (z-score) (Gal3S(b1-3)GlcNAc): -0.098
glycan array binding signal (z-score) [34]: 0.015
